Experimental data from the supplement of paper PMC5919970.
Where a name gives a salt, the structure may show the parent alone. In all, about 2,000 compounds were measured (“fractional viability relative to vehicle”: median about 0.92, lowest 2% from about 0.11 on). The list shows a part of the results.

Tested on: TYKNU
Assay: fractional viability relative to vehicle; TYKNU is a high-grade serous ovarian cancer line; higher = less growth inhibition
Conditions: 72 h, genotype: OPA1 knockout (sgOPA1 #2)
How it was run: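 TYKNU control cells or lentiCRISPRv2 knockout derivatives were seeded at 500 cells per well into drug-stamped 384-well plates holding a ~2100-compound library at 2 or 10 μM, in duplicate. Cells were grown at 37 °C in 5% CO2 in RPMI 1640 with 10% FBS, and drug treatment lasted 72 h. Viability was read by Cell Titer Glo luminescence. Duplicate treatment wells were averaged and normalised to duplicate control wells from the same plate position.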

SMILES: CC(=O)Nc1ncc([N+](=O)[O-])s1 [Nithiamide]
- fractional viability (2uM): 1.55
- fractional viability (10uM): 1.18

SMILES: CC[C@H]1OC(=O)[C@H](C)[C@@H](O[C@H]2C[C@@](C)(OC)[C@@H](O)[C@H](C)O2)[C@H](C)[C@@H](O[C@@H]2O[C@H](C)C[C@H](N(C)C)[C@H]2O)[C@](C)(O)C[C@@H](C)[C@@H]2N[C@@H](COCCOC)O[C@H]([C@H]2C)[C@]1(C)O [Dirithromycin]
- fractional viability (2uM): 0.946
- fractional viability (10uM): 0.856

SMILES: O=C1CC2(CCCC2)CC(=O)N1CCCCN1CCN(c2ncccn2)CC1 [Buspirone HCl]
- fractional viability (2uM): 1.07
- fractional viability (10uM): 0.915

SMILES: O=C(NOC[C@H](O)CO)c1ccc(F)c(F)c1Nc1ccc(I)cc1F
- fractional viability (2uM): 0.528
- fractional viability (10uM): 0.453

SMILES: CC(C)c1cc(-c2ccc(F)c3ccccc23)nc(N)n1
- fractional viability (2uM): 1.05
- fractional viability (10uM): 0.905

SMILES: Cc1cc(C)c(/C=C2\C(=O)Nc3ccccc32)[nH]1 [Semaxanib (SU5416)]
- fractional viability (2uM): 0.956
- fractional viability (10uM): 0.988

SMILES: COc1ccc(S(=O)(=O)N(C(C)=O)c2ccccc2/C=C/c2cc[n+]([O-])cc2)cc1
- fractional viability (2uM): 0.382
- fractional viability (10uM): 0.396

SMILES: Cc1c(F)cc(C(=O)NC2CC2)cc1-c1ccc(C(=O)NCC(C)(C)C)cn1
- fractional viability (2uM): 0.986
- fractional viability (10uM): 0.973

SMILES: CC(C)(C)c1ccc(-c2nc3ccccc3[nH]2)cc1
- fractional viability (2uM): 0.538
- fractional viability (10uM): 0.175

SMILES: O=C(/C=C/c1ccc(CN(CCO)CCc2c[nH]c3ccccc23)cc1)NO [LAQ824 (Dacinostat)]
- fractional viability (2uM): 0.228
- fractional viability (10uM): 0.25

SMILES: Cc1nc(-c2cn3c(n2)-c2ccc(-c4cnn(C(C)(C)C(N)=O)c4)cc2OCC3)n(C(C)C)n1
- fractional viability (2uM): 0.978
- fractional viability (10uM): 0.936

SMILES: O=c1cc[nH]c(=S)[nH]1 [2-Thiouracil]
- fractional viability (2uM): 0.927
- fractional viability (10uM): 1.05

SMILES: C[C@@H](N)[C@H]1CC[C@H](C(=O)Nc2ccncc2)CC1
- fractional viability (2uM): 1.32
- fractional viability (10uM): 1.21

SMILES: O=c1cc(-c2ccc(O)cc2)oc2cc(O)cc(O)c12 [Apigenin]
- fractional viability (2uM): 0.916
- fractional viability (10uM): 1.23

SMILES: CO[C@H]1/C=C/O[C@@]2(C)Oc3c(C)c(O)c4c(c3C2=O)C2=NC3(CCN(CC(C)C)CC3)NC2=C(NC(=O)/C(C)=C\C=C\[C@H](C)[C@H](O)[C@@H](C)[C@@H](O)[C@@H](C)[C@H](OC(C)=O)[C@@H]1C)C4=O [Rifabutin]
- fractional viability (2uM): 1.12
- fractional viability (10uM): 0.817

SMILES: CNc1nc(Nc2cnn([C@H]3CCN(C4COC4)C[C@@H]3F)c2Cl)ncc1C(F)(F)F
- fractional viability (2uM): 0.853
- fractional viability (10uM): 0.616

SMILES: Clc1ccc(C(Cn2ccnc2)OCc2c(Cl)cccc2Cl)c(Cl)c1 (stereo unspecified) [Isoconazole nitrate]
- fractional viability (2uM): 1.12
- fractional viability (10uM): 0.78

SMILES: CC(C)n1nc(-c2cc3cc(O)ccc3[nH]2)c2c(N)ncnc21
- fractional viability (2uM): 0.678
- fractional viability (10uM): 0.337

SMILES: NC(=O)N1c2ccccc2C=Cc2ccccc21 [Carbamazepine]
- fractional viability (2uM): 1.17
- fractional viability (10uM): 1.04

SMILES: O=c1ncccn1[C@@H]1O[C@H](CO)[C@@H](O)[C@H]1O [Zebularine]
- fractional viability (2uM): 0.877
- fractional viability (10uM): 0.914

SMILES: O=C(CCCCCCNC(=O)c1cnc(N(c2ccccc2)c2ccccc2)nc1)NO [Rocilinostat (ACY-1215)]
- fractional viability (2uM): 0.704
- fractional viability (10uM): 0.49

SMILES: NC(CO)(CO)CO [Trometamol]
- fractional viability (2uM): 0.883
- fractional viability (10uM): 0.842

SMILES: O=C(NCCS(=O)(=O)c1ccc(C(F)(F)F)cn1)c1ccc(Cl)cc1
- fractional viability (2uM): 0.952
- fractional viability (10uM): 0.811

SMILES: CC(C)CC(=O)Nc1n[nH]c2c1CN(C(=O)C1CCN(C)CC1)C2(C)C
- fractional viability (2uM): 0.53
- fractional viability (10uM): 0.535

SMILES: O=c1[nH]c(=O)n(C2CC(O)C(CO)O2)cc1Br (stereo unspecified) [Bromodeoxyuridine (BrdU)]
- fractional viability (2uM): 0.633
- fractional viability (10uM): 0.679

SMILES: Nc1nc(F)nc2c1ncn2[C@@H]1O[C@H](CO)[C@@H](O)[C@@H]1O [Fludarabine]
- fractional viability (2uM): 0.555
- fractional viability (10uM): 0.277

SMILES: CC(=O)N1c2ccc(-c3ccc(C(=O)O)cc3)cc2[C@H](Nc2ccc(Cl)cc2)C[C@@H]1C
- fractional viability (2uM): 0.529
- fractional viability (10uM): 0.337

SMILES: CC[C@H]1OC(=O)[C@H](C)[C@@H](O[C@H]2C[C@@](C)(OC)[C@@H](O)[C@H](C)O2)[C@H](C)[C@@H](O[C@@H]2O[C@H](C)C[C@H](N(C)C)[C@H]2O)[C@](C)(O)C[C@@H](C)/C(=N\OCOCCOC)[C@H](C)[C@@H](O)[C@]1(C)O [Roxithromycin]
- fractional viability (2uM): 1.09
- fractional viability (10uM): 0.969

SMILES: O=C1CN2Cc3c(ccc(Cl)c3Cl)N=C2N1 [Anagrelide HCl]
- fractional viability (2uM): 1.04
- fractional viability (10uM): 0.917

SMILES: CN(C)Cc1c(C(=O)NCCOc2ccc(C(=O)NO)cc2)oc2ccccc12
- fractional viability (2uM): 0.425
- fractional viability (10uM): 0.261

SMILES: CN1CC[C@H](c2c(O)cc(O)c3c(=O)cc(-c4ccccc4Cl)oc23)[C@H](O)C1 [Flavopiridol HCl]
- fractional viability (2uM): 0.538
- fractional viability (10uM): 0.814

SMILES: CN1CC[C@H](c2c(O)cc(O)c3c(=O)cc(-c4ccccc4Cl)oc23)[C@H](O)C1 [Flavopiridol (Alvocidib)]
- fractional viability (2uM): 0.602
- fractional viability (10uM): 0.742

SMILES: COc1ccc(-c2cc(=O)c3c(O)cc(O)cc3o2)cc1O [Diosmetin]
- fractional viability (2uM): 1.45
- fractional viability (10uM): 1.45

SMILES: Nc1nc(Cl)nc2c1ncn2[C@@H]1O[C@H](CO)[C@@H](O)[C@@H]1F [Clofarabine]
- fractional viability (2uM): 0.694
- fractional viability (10uM): 0.562

SMILES: CC(C)(C)NC[C@H](O)COc1nsnc1N1CCOCC1 [Timolol Maleate]
- fractional viability (2uM): 0.992
- fractional viability (10uM): 0.918

SMILES: Cc1ccc(C(=O)Nc2ccc(CN3CCN(C)CC3)c(C(F)(F)F)c2)cc1C#Cc1cnc2cccnn12
- fractional viability (2uM): 0.67
- fractional viability (10uM): 0.106

SMILES: O=C(Nc1cccc2c(=O)cc(-c3nnn[nH]3)oc12)c1ccc(OCCCCc2ccccc2)cc1 [Pranlukast]
- fractional viability (2uM): 1.12
- fractional viability (10uM): 0.952

SMILES: COc1cc(OC)c2c(=O)[nH]c(-c3cc(C)c(OCCO)c(C)c3)nc2c1
- fractional viability (2uM): 1.1
- fractional viability (10uM): 1.22

SMILES: O=C(c1cccc(Cl)c1F)N1CCN(Cc2cccc(Nc3nccs3)n2)CC1
- fractional viability (2uM): 0.727
- fractional viability (10uM): 0.767

SMILES: CC(C)[C@H]1C(=O)N[C@@H](CCCNC(=N)N)C(=O)NCC(=O)N[C@@H](CC(=O)O)C(=O)N[C@H](Cc2ccccc2)C(=O)N1C [Cilengitide]
- fractional viability (2uM): 0.735
- fractional viability (10uM): 0.827

SMILES: Cn1cc(-c2ccc(F)c(C(F)(F)F)c2)nc1C1CCN(c2ncnc3[nH]ncc23)CC1
- fractional viability (2uM): 0.855
- fractional viability (10uM): 0.528

SMILES: O=C(Nc1c[nH]nc1-c1nc2ccc(CN3CCOCC3)cc2[nH]1)NC1CC1
- fractional viability (2uM): 0.902
- fractional viability (10uM): 0.755

SMILES: CCOC(=O)[C@H](CCc1ccccc1)N[C@H]1CCc2ccccc2N(CC(=O)O)C1=O [Benazepril HCl]
- fractional viability (2uM): 1.11
- fractional viability (10uM): 1.11
